# Source: PubChem BioAssay AID488969 (Vanderbilt High Throughput Screening Facility, 2010)
# Whole data set: some 110,000 compounds, median “z-score” near -0.1, cut for the highest 2% near 2. Some of the results follow.
# Biological target: Metabotropic glutamate receptor 8 (Rattus norvegicus) (UniProt P70579)
# Assay: mGluR8 Gi/Go-coupled signaling modulation – cell-based, rat, thallium flux, HTS, primary screen (AID 488969)
# Conditions: HEK293 rat mGluR8, GIRK (G protein-gated inwardly rectifying potassium channel) thallium flux, FluoZin2; at 10 µM; stronger effect = higher value
# Sequence of UniProt P70579 (P70579 whole entry, looked up): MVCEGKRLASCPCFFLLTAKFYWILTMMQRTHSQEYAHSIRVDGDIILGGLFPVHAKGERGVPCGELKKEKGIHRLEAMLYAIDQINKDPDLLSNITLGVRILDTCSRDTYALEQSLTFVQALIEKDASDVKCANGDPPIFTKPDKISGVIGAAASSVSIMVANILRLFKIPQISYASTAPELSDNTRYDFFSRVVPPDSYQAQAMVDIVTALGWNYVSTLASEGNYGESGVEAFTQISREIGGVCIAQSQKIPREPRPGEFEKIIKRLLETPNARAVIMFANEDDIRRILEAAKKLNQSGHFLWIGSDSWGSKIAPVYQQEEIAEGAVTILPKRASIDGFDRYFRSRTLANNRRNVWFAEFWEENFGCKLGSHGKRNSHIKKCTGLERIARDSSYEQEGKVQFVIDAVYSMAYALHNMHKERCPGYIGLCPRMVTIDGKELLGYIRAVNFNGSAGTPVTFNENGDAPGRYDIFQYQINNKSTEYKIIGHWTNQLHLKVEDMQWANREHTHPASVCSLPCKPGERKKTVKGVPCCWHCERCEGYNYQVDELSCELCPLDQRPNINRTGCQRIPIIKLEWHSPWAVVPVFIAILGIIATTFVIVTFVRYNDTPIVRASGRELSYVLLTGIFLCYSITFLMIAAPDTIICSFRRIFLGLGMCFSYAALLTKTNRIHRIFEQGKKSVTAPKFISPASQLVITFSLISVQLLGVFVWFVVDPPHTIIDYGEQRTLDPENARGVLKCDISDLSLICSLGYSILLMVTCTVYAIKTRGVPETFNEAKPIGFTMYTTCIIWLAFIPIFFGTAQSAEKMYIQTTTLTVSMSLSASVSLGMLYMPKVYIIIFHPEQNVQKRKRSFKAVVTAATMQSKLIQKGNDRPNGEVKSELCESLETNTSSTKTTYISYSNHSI
row,SMILES,z-score
1,Cn1c(O)c(C(=O)c2ccccc2Cl)c(=O)n(C)c1=O,-0.534
2,COc1ccc(S(=O)(=O)NC(CC(=O)N2CCC3(CC2)OCCO3)C(C)C)cc1 (centres undefined),0.385
3,CCC(COC(=O)NC)NC(=O)Oc1cccc(C)c1 (centres undefined),-0.336
4,CN(C)c1ccc(/C=C/[N+](=O)[O-])cc1,-0.196
5,CC(c1ccccc1)n1cncc1C(=O)O (centres undefined),-1.5
6,CCN(CC)c1ccc(N=Cc2c(O)n(-c3ccc(OC)cc3)c(=O)[nH]c2=O)cc1,-0.432
7,CCOC(C(=O)OCCCN(CC)CC)(c1ccccc1)c1ccccc1,0.0588
8,CC(C)Cc1nnc(NC(=O)CCC(=O)N2CCN(CCOC(c3ccccc3)c3ccccc3)CC2)s1,-0.181
9,O=P(O)(O)C12CC3CC(CC(C3)C1)C2,-0.0471
10,CCOP(=S)(OCC)SCC(=O)NC(C(=O)O)C(C)C (centres undefined),0.398
11,CCCCOc1nc2ccccc2c(=O)n1-c1ccccc1,-0.504
12,COc1ccc(C(C)=O)cc1CC(C(=O)c1ccc(Br)cc1)N(C)C (centres undefined),-0.102
13,C/C(CCc1c[nH]c2ccccc12)=N\O,0.0995
14,CN(C(=O)Oc1ccc(C(=O)c2ccc(Cl)cc2)cc1)c1ccccc1,0.116
15,CCC(=NCCN1CCCCC1)c1c(O)n(C)c(=O)n(C)c1=O,-0.0797
16,COC(=O)C(O)(c1ccc(N(C)C(=O)c2ccc(Cl)c(Cl)c2)cc1)C(F)(F)F (centres undefined),-0.855
17,O=P(/C(=N/O)N1CCCCC1)(N1CCOCC1)N1CCOCC1,0.0346
18,O=c1c2ccccc2nc(/C=C/c2ccc3c(c2)OCO3)n1-c1ccccc1,-0.658
19,O=C(c1ccc2c(c1)ncn2C1CCCCCC1)N1CCC2(CC1)OCCO2,-0.0497
20,CC(=O)c1ccc2c(c1)C1C(Cl)C(Sc3ccccc3[N+](=O)[O-])CC1C(c1ccccc1)N2 (centres undefined),0.121
21,Cc1ccc(-n2c(O)c(C=NC3CCCC3)c(=O)[nH]c2=O)c(C)c1,-0.0688
22,O=C(CNC(=O)c1ccccc1Cl)Nc1ccc(Br)cc1C(=O)c1ccccc1,-0.208
23,COc1ccc(-n2c(O)c(/C=C/C=Nc3ccccc3)c(=O)[nH]c2=O)cc1,-0.724

row,SMILES,z-score
1,Cn1c(=O)cc(SCC(=O)N2CCC3(CC2)OCCO3)c2ccc(Cl)cc21,0.392
2,O=c1[nH]c(=O)n(-c2ccccc2)c(O)c1/C=C1/C(c2ccccc2)=Nc2ccccc21,0.732
3,COc1ccc(CCNCc2ccc(SC)cc2)cc1,0.481
4,COc1cc(CN2CCN(c3cc(C)ccc3C)CC2)ccc1O,-0.932
5,CC(=NC(C)c1ccccc1)c1c(O)[nH]c(=O)[nH]c1=O (centres undefined),0.0435
6,O=C1/C(=C/c2ccc([N+](=O)[O-])cc2)N2CCC1CC2,0.00904
7,O=C(c1cccc(N2CCCC2=O)c1)N1CCC2(CC1)OCCO2,-0.18
8,CC1CCCCN1C(=O)c1ccc(N2CC3CC(C2)c2cccc(=O)n2C3)c([N+](=O)[O-])c1 (centres undefined),-0.624
9,Cc1nn(C)cc1/C=C1/CC2C3CC=C4CC(O)CCC4(C)C3CCC2(C)C1=O (centres undefined),-1.25
10,CC(=NCCC(c1ccccc1)c1ccccc1)c1c(O)n(C)c(=O)n(C)c1=O,-0.488
11,Cc1ccn2nc(S(=O)(=O)Nc3c(F)cccc3F)nc2n1,-0.257
12,O=C1CC(=O)N(c2ccc3c(c2)OCO3)C(=O)N1,-0.136
13,Cc1ccc(-n2c(O)c(C=NCCN3CCOCC3)c(=O)[nH]c2=O)cc1,0.016
14,CSc1ncc(Cl)c(C(=O)O)n1,0.0882
15,O=C(COc1ccc(S(=O)(=O)N2CCCCC2)cc1)N1CCN(Cc2ccccc2)CC1,-0.131
16,O=c1[nH]c(=O)n(-c2cccc(Cl)c2)c(O)c1/C=N/c1ccccn1,-0.309
17,COc1cc(/C=N/NP(=S)(c2ccccc2)c2ccccc2)ccc1O,0.964
18,COc1ccccc1N(CC(=O)NC1CCCCC1)C(=O)c1cnn(C(C)C)c1,0.21
19,NC(=O)CN1C2CCC1CC(NC(=O)C1CC1)C2 (centres undefined),-0.789
20,CCOC(=O)[C@]1(C#N)[C@@H]2C=CC(C(C)=O)=CN2[C@@H](C(N)=O)[C@@H]1c1ccsc1,0.236
21,C=CCn1c(O)c(C(C)=NC2CC2)c(=O)[nH]c1=O,0.18
22,COc1ccc(NC(=O)CN2C3CCC2CC(O)(c2cccnc2)C3)cc1OC (centres undefined),-0.531
23,COCCOC(=O)C1=C(N)Oc2c(c(=O)oc3ccccc23)C1c1ccncc1 (centres undefined),-0.453

row,SMILES,z-score
1,C[C@H]1CCC[C@@H](O)CCC/C=C/c2cc(O)cc(O)c2C(=O)O1,-0.472
2,Cc1ccc(/C=C2/C(=O)NC(=O)N(C)C2=O)cc1,1.07
3,CC1CN(CCc2ccccc2)CC(C)O1 (centres undefined),0.104
4,O=C1C2CCCN2C(c2ccc(Cl)c(Cl)c2)N1c1ccccn1 (centres undefined),-0.0899
5,CN(C)C(=O)Oc1cccc(OCc2n(C)c3ccccc3[n+]2C)c1,-0.202
6,NCCc1c[nH]c2ccc(F)cc12,0.208
7,Cc1ccccc1-n1c(O)c(C=Nc2ccc(N(C)C)cc2)c(=O)[nH]c1=O,-1.21
8,CC(=O)c1cccc(OCC(O)CN2CC=C(c3ccccc3)CC2)c1 (centres undefined),-0.649
9,Cc1ccc(/C=C2/C(=O)NC(=O)N(CCc3ccc(F)cc3)C2=O)s1,-0.392
10,c1ccc2c(c1)CNc1ccccc1O2,0.371
11,O=C(c1cccn2c(=O)c3cc(Cl)ccc3nc12)N1CCC2(CC1)OCCO2,-0.0541
12,C=CC1CN2CCC1CC2[C@@H](OC(=O)c1ccc(OC)cc1)c1ccnc2ccccc12 (some centres undefined),-0.885
13,O=P(NS(=O)(=O)c1ccc(Cl)cc1)(Oc1ccccc1)Oc1ccccc1,0.386
14,NC(=O)C1(N2CCCCC2)CCN(Cc2ccccc2)CC1,0.711
15,CCOC(C(=O)OCC(O)CN(CC)CC)(c1ccccc1)c1ccccc1 (centres undefined),0.39
16,CC(c1ccc(F)cc1)n1cc(C(=O)NCc2ccc3c(c2)OCO3)nn1 (centres undefined),0.0962
17,Cc1cccc(-n2c(-c3ccc([N+](=O)[O-])cc3)nc3ccccc3c2=O)c1,-0.131
18,c1ccc(-c2[nH]c(-c3ccccc3)[n+](CC3CO3)c2-c2ccccc2)cc1 (centres undefined),-0.603
19,C#CCN1C(=O)C2(C(C#N)=C(N)OC(C)=C2C(=O)OCc2ccccc2)c2ccccc21 (centres undefined),-0.604
20,CN1CC=C2C(C#N)=C(N)C(C#N)(C#N)C(c3ccncc3)C2C1 (centres undefined),-0.434
21,NC(=O)c1c(NC(=O)c2ccc(S(=O)(=O)N(CCCl)CCCl)cc2)sc2c1CCCCC2,-0.204
22,CC1CN(C)C(C)(C)CC1(O)c1ccccc1 (centres undefined),0.254
23,O=c1c(C=NCc2cccs2)c(O)n(C2CCCCC2)c(=O)n1C1CCCCC1,-0.421
